Laboratory results: the supplement of paper PMC11148083
Converted amounts (≈) assume the structure as drawn. “And” between values parts separate entries of the source, which are not always exact repeats. Equal entries are not always repeated. MIC of E. coli strains with or without a β-lactamase plasmid, in LB (broth microdilution, 22 h, 37 °C, OD600 below 0.2; fosfomycin by agar dilution); pBAD18 genes induced with arabinose where stated. Higher = less susceptible. No active / inactive call. Values are arithmetic means of replicate MICs, so they fall between dilution steps. Colistin is a mixture; one drawing stands for it.

How the values were obtained:
Assay in all cases: Broth microdilution in LB (fosfomycin: agar dilution), 22 h at 37 °C; MIC = lowest dose with OD600 below 0.2.
[1] = tested on: Escherichia coli BW25113 (arabinose: 0.5% w/v)
Escherichia coli ECOR01 = tested on: Escherichia coli ECOR01
Escherichia coli ECOR27 = tested on: Escherichia coli ECOR27
Escherichia coli ECOR35 = tested on: Escherichia coli ECOR35
Escherichia coli ECOR42 = tested on: Escherichia coli ECOR42
Escherichia coli ECOR47 = tested on: Escherichia coli ECOR47
Escherichia coli ECOR49 = tested on: Escherichia coli ECOR49
Escherichia coli ECOR53 = tested on: Escherichia coli ECOR53
Escherichia coli ECOR61 = tested on: Escherichia coli ECOR61
Escherichia coli ECOR70 = tested on: Escherichia coli ECOR70
Escherichia coli J53 = tested on: Escherichia coli J53

CC[C@H]1OC(=O)[C@H](C)[C@@H](O[C@H]2C[C@@](C)(OC)[C@@H](O)[C@H](C)O2)[C@H](C)[C@@H](O[C@@H]2O[C@H](C)C[C@H](N(C)C)[C@H]2O)[C@](C)(O)C[C@@H](C)CN(C)[C@H](C)[C@@H](O)[C@]1(C)O [azithromycin]
Conditions	MIC
Escherichia coli ECOR01, plasmid: none	16 µg/mL (≈ 21.4 µM)
Escherichia coli ECOR01, plasmid: pUN4 empty	16 µg/mL (≈ 21.4 µM)
Escherichia coli ECOR01, plasmid: pUN4 with blaCTX-M-15	13.3 µg/mL (≈ 17.8 µM)
Escherichia coli ECOR01, plasmid: pUN4 with blaOXA-48	12 µg/mL (≈ 16 µM)
Escherichia coli ECOR27, plasmid: none	12 µg/mL (≈ 16 µM)
Escherichia coli ECOR27, plasmid: pUN4 empty	12 µg/mL (≈ 16 µM)
Escherichia coli ECOR27, plasmid: pUN4 with blaCTX-M-15	4.33 µg/mL (≈ 5.79 µM)
Escherichia coli ECOR27, plasmid: pUN4 with blaOXA-48	6.67 µg/mL (≈ 8.9 µM)
Escherichia coli ECOR35, plasmid: none	21.3 µg/mL (≈ 28.5 µM)
Escherichia coli ECOR35, plasmid: pUN4 empty	18.7 µg/mL (≈ 24.9 µM)
Escherichia coli ECOR35, plasmid: pUN4 with blaCTX-M-15	12 µg/mL (≈ 16 µM)
Escherichia coli ECOR35, plasmid: pUN4 with blaOXA-48	10.7 µg/mL (≈ 14.2 µM)
Escherichia coli ECOR42, plasmid: none	16 µg/mL (≈ 21.4 µM)
Escherichia coli ECOR42, plasmid: pUN4 empty	16 µg/mL (≈ 21.4 µM)
Escherichia coli ECOR42, plasmid: pUN4 with blaCTX-M-15	8 µg/mL (≈ 10.7 µM)
Escherichia coli ECOR42, plasmid: pUN4 with blaOXA-48	7 µg/mL (≈ 9.35 µM)
Escherichia coli ECOR47, plasmid: none	16 µg/mL (≈ 21.4 µM)
Escherichia coli ECOR47, plasmid: pUN4 empty	16 µg/mL (≈ 21.4 µM)
Escherichia coli ECOR47, plasmid: pUN4 with blaCTX-M-15	9.33 µg/mL (≈ 12.5 µM)
Escherichia coli ECOR47, plasmid: pUN4 with blaOXA-48	13.3 µg/mL (≈ 17.8 µM)
Escherichia coli ECOR49, plasmid: none	16 µg/mL (≈ 21.4 µM)
Escherichia coli ECOR49, plasmid: pUN4 empty	16 µg/mL (≈ 21.4 µM)
Escherichia coli ECOR49, plasmid: pUN4 with blaCTX-M-15	9.33 µg/mL (≈ 12.5 µM)
Escherichia coli ECOR49, plasmid: pUN4 with blaOXA-48	10.7 µg/mL (≈ 14.2 µM)
Escherichia coli ECOR53, plasmid: none	13.3 µg/mL (≈ 17.8 µM)
Escherichia coli ECOR53, plasmid: pUN4 empty	16 µg/mL (≈ 21.4 µM)
Escherichia coli ECOR53, plasmid: pUN4 with blaCTX-M-15	8 µg/mL (≈ 10.7 µM)
Escherichia coli ECOR53, plasmid: pUN4 with blaOXA-48	8 µg/mL (≈ 10.7 µM)
Escherichia coli ECOR61, plasmid: none	10.7 µg/mL (≈ 14.2 µM)
Escherichia coli ECOR61, plasmid: pUN4 empty	10.7 µg/mL (≈ 14.2 µM)
Escherichia coli ECOR61, plasmid: pUN4 with blaCTX-M-15	12 µg/mL (≈ 16 µM)
Escherichia coli ECOR61, plasmid: pUN4 with blaOXA-48	10 µg/mL (≈ 13.4 µM)
Escherichia coli ECOR70, plasmid: none	16 µg/mL (≈ 21.4 µM)
Escherichia coli ECOR70, plasmid: pUN4 empty	16 µg/mL (≈ 21.4 µM)
Escherichia coli ECOR70, plasmid: pUN4 with blaCTX-M-15	12 µg/mL (≈ 16 µM)
Escherichia coli ECOR70, plasmid: pUN4 with blaOXA-48	16 µg/mL (≈ 21.4 µM)
Escherichia coli J53, plasmid: none	18.7 µg/mL and 8.53 µg/mL
Escherichia coli J53, plasmid: pOXA-48 DEL (blaOXA-48 not expressed)	8.53 µg/mL (≈ 11.4 µM)
Escherichia coli J53, plasmid: pOXA-48 PV-B (blaOXA-48)	0.75 µg/mL (≈ 1 µM)
Escherichia coli J53, plasmid: pOXA-48 PV-D (blaOXA-48)	1.83 µg/mL (≈ 2.45 µM)
Escherichia coli J53, plasmid: pOXA-48 PV-E (blaOXA-48)	1.33 µg/mL (≈ 1.78 µM)
Escherichia coli J53, plasmid: pOXA-48 PV-K (blaOXA-48)	1.17 µg/mL (≈ 1.56 µM)
Escherichia coli J53, plasmid: pOXA-48 PV-O (blaOXA-48)	3.17 µg/mL (≈ 4.23 µM)
Escherichia coli J53, plasmid: pOXA-48 TET (blaOXA-48 replaced by tetC)	12 µg/mL (≈ 16 µM)
Escherichia coli J53, plasmid: pOXA-48 WT (blaOXA-48)	1.33 µg/mL (≈ 1.78 µM)
Escherichia coli J53, plasmid: pUN4 empty	18.7 µg/mL and 10.7 µg/mL
Escherichia coli J53, plasmid: pUN4 with blaCTX-M-15	10 µg/mL (≈ 13.4 µM)
Escherichia coli J53, plasmid: pUN4 with blaOXA-48	7.33 µg/mL and 5.78 µg/mL
Escherichia coli J53, plasmid: pUN4 with the DEL allele of blaOXA-48	8.89 µg/mL (≈ 11.9 µM)
[1], plasmid: none	12 µg/mL (≈ 16 µM)
[1], plasmid: pBAD18 empty	8 µg/mL (≈ 10.7 µM)
[1], plasmid: pBAD18 with blaCTX-M-14	4 µg/mL (≈ 5.34 µM)
[1], plasmid: pBAD18 with blaCTX-M-15	4 µg/mL (≈ 5.34 µM)
[1], plasmid: pBAD18 with blaKPC-2	4 µg/mL (≈ 5.34 µM)
[1], plasmid: pBAD18 with blaNDM-1	3.67 µg/mL (≈ 4.9 µM)
[1], plasmid: pBAD18 with blaOXA-1	4 µg/mL (≈ 5.34 µM)
[1], plasmid: pBAD18 with blaOXA-48	4 µg/mL (≈ 5.34 µM)
[1], plasmid: pBAD18 with blaTEM-1	4 µg/mL (≈ 5.34 µM)

C[C@H]1[C@H](NC(=O)/C(=N\OC(C)(C)C(=O)O)c2csc(N)n2)C(=O)N1S(=O)(=O)O [aztreonam]
[1]
Conditions	MIC [µg/mL]
plasmid: none	0.146 (≈ 0.335 µM)
plasmid: pBAD18 empty	0.146 (≈ 0.335 µM)
plasmid: pBAD18 with blaCTX-M-14	64 (≈ 147 µM)
plasmid: pBAD18 with blaCTX-M-15	32.1 (≈ 73.7 µM)
plasmid: pBAD18 with blaKPC-2	58.7 (≈ 135 µM)
plasmid: pBAD18 with blaNDM-1	0.146 (≈ 0.335 µM)
plasmid: pBAD18 with blaOXA-1	0.208 (≈ 0.478 µM)
plasmid: pBAD18 with blaOXA-48	0.188 (≈ 0.431 µM)
plasmid: pBAD18 with blaTEM-1	0.583 (≈ 1.34 µM)

CO[C@H]1/C=C/O[C@@]2(C)Oc3c(C)c(O)c4c(O)c(c(/C=N/N5CCN(C)CC5)c(O)c4c3C2=O)NC(=O)/C(C)=C\C=C\[C@H](C)[C@H](O)[C@@H](C)[C@@H](O)[C@@H](C)[C@H](OC(C)=O)[C@@H]1C [rifampicin]
[1]
Conditions	MIC [µg/mL]
plasmid: none	8 (≈ 9.72 µM)
plasmid: pBAD18 empty	9.33 (≈ 11.3 µM)
plasmid: pBAD18 with blaCTX-M-14	7.33 (≈ 8.91 µM)
plasmid: pBAD18 with blaCTX-M-15	8 (≈ 9.72 µM)
plasmid: pBAD18 with blaKPC-2	8 (≈ 9.72 µM)
plasmid: pBAD18 with blaNDM-1	8 (≈ 9.72 µM)
plasmid: pBAD18 with blaOXA-1	7.33 (≈ 8.91 µM)
plasmid: pBAD18 with blaOXA-48	8 (≈ 9.72 µM)
plasmid: pBAD18 with blaTEM-1	8 (≈ 9.72 µM)
